Test results: PubChem BioAssay AID463173 (ICCB-Longwood Screening Facility, Harvard Medical School, 2010)
Hit rate of the full screen: of about 52,000 compounds, about 1,700 (3.3%) were called active. Cut-off read from the data, not from the text of the source: active = survival mostly below about 52% (no sharp cut-off); inactive = mostly above about 56%. Some of the results follow.

The compounds below were run on Wild type (assay: S. aureus survival, RN4220 and DeltatarO strains – OD600, teichoic acid synthesis inhibitors, primary screen (AID 463173)). Details: S. aureus RN4220 wild type/DeltatarO growth, OD600, 18 h, hits give low values, screened at 18.75 µg/mL (by protocol).
`COc1ccc(S(=O)(=O)Nc2ccc(S(=O)(=O)N3CCCC3)cc2)cc1C` was tested, and the survival was inactive: 104%. With `O=C(Nc1cc(-c2ccc(F)c(F)c2)no1)c1ccccc1F` the survival was inactive: 92%. With `Cc1cccc(N2CCN(C(=O)C3CCCN(C(=O)c4cc5sccc5n4C)C3)CC2)c1C` (stereo not given) the survival was inactive: 68%. In the case of `COc1ccc(N2CCN(c3ncnc4onc(C)c34)CC2)cc1`, the survival is reported as inactive: 76%. In the case of `CCOc1ccc(CCNC(=O)Cn2ccc3cc(S(=O)(=O)N4CCCCCC4)ccc32)cc1`, the survival is reported as inactive: 134%. With `CCC1CN(C(=O)C2CCN(S(=O)(=O)c3c(C)noc3/C=C/c3ccc(C)cc3)CC2)c2cc(C)ccc2O1` (stereo not given) the survival was inactive: 74%. `CC1=C(C(=O)Nc2ccc(F)cc2)C(c2ccc(N(C)C)cc2)NC(=O)N1` (stereo not given) was tested, and the survival was inactive: 129%. In the case of `COCCNC(=O)CCn1c(=O)[nH]c2cc(OC)c(OC)cc2c1=O`, the survival is reported as inactive: 75%. For `N=C1SCC(=O)N1c1nc(-c2ccccc2)cs1`, the survival was inactive: 114%. In the case of `COc1ccc(NC(=O)C(=O)c2cc(C)n(-c3ccc(C)cc3)c2C)cc1Cl`, the survival is reported as inactive: 86%. For `O=C(Nc1ccc(C(F)(F)F)cc1)C1(c2cccs2)CCOCC1`, the survival was inactive: 82%. With `CCCOC(=O)c1cccc(Nc2nc(C(=O)OCC)nc3ccccc23)c1` the survival was inactive: 44%. With `CCC1CN(C(=O)N2CCC(C(=O)NCc3ccccc3F)CC2)c2ccccc2O1` (stereo not given) the survival was inactive: 98%. `CC1CCCN(c2ncnc3c2nnn3C)C1` (stereo not given) was tested, and the survival was inactive: 59%. In the case of `CCOc1ccc(NC(=O)c2cc(S(=O)(=O)N3CCC(C)CC3)cn2C)cc1`, the survival is reported as inactive: 118%. `COc1ccc(CNC(=O)Cc2ccc(NC(=O)N3CCCCc4ccccc43)cc2)cc1` was tested, and the survival was inactive: 93%. For `Cc1ccc(NC(=O)c2c(C)oc3ncnc(N4CCCCC4)c23)c(C)c1`, the survival was inactive: 120%. `CC(Oc1ccccc1F)C(=O)NCC1(N2CCOCC2)CCCCC1` (stereo not given) was tested, and the survival was inactive: 86%. With `O=c1nc2ccccn2c2c1c(=O)[nH]c1ccccc12` the survival was inactive: 98%. `CC1CCN(CN2C(=O)CCC2=O)CC1` was tested, and the survival was inactive: 102%. With `CC1=C2C(N)=C(C(=O)Nc3ccccc3)SC2NC(C(F)(F)F)=C1` (stereo not given) the survival was inactive: 114%. `CCOc1ccccc1C(=O)N=C1NC(=O)CS1` was tested, and the survival was inactive: 97%. For `Cc1cc(C)cc(NC(=O)c2cc(S(=O)(=O)N3CCCCC3)c[nH]2)c1`, the survival was inactive: 88%. `CCc1ccc(NC(=O)c2sc3nc(C)cc(C)c3c2NC(=O)c2ccccc2)cc1` was tested, and the survival was inactive: 68%. For `COc1ccc(CNC(=O)C2CCN(c3nnc(C)c4c(C)n(-c5ccc(C)cc5)nc34)CC2)cc1`, the survival was inactive: 119%. In the case of `Cc1cc(=O)n2[nH]c(CC(=O)O)nc2n1`, the survival is reported as inactive: 112%. In the case of `Cc1ccccc1NC(=O)C1CCN(S(=O)(=O)c2cccc3nonc23)CC1`, the survival is reported as inactive: 121%. For `COc1cccc(CNC(=O)Nc2ccc3c(c2)N(C)C(=O)c2ccccc2S3)c1`, the survival was inactive: 78%. `Cc1ccc(-c2nn3c(C)nnc3c3ccccc23)cc1S(=O)(=O)NC(C)(C)CO` was tested, and the survival was inactive: 89%. With `COc1ccc(OC)c(-c2cc(C(=O)NCc3ccc(Cl)cc3)no2)c1` the survival was inactive: 85%. In the case of `CCOc1ccc(N(C)S(=O)(=O)c2cc(-c3cnc(C)o3)ccc2OC)cc1`, the survival is reported as inactive: 54%. In the case of `O=C(Nc1nnc2n1CCS2)c1cc(C(F)(F)F)cc(C(F)(F)F)c1`, the survival is reported as inactive: 80%. In the case of `Cc1ccc(C)c(NC(=O)Cn2cc(S(=O)(=O)c3ccc(F)cc3)c(=O)c3cc(F)ccc32)c1`, the survival is reported as inactive: 89%. In the case of `COc1ccc(/C=C/C(=O)Nc2cccc(F)c2)cc1`, the survival is reported as inactive: 62%. For `CN(C)S(=O)(=O)c1ccc2c(c1)N(CC(=O)N1CCC(C(N)=O)CC1)CCS2`, the survival was inactive: 75%. In the case of `Cn1c(=O)c2c(-c3ccccc3)n3c(c2n(C)c1=O)C(c1cccc([N+](=O)[O-])c1)Nc1ccccc1-3` (stereo not given), the survival is reported as inactive: 31%. In the case of `Cc1ccc(NC(=O)C2CCCN(c3nc4ccccc4s3)C2)c(C)c1` (stereo not given), the survival is reported as inactive: 86%. `CCc1ccc2[nH]c(=O)c(C(c3nnnn3C(C)(C)C)N3CCCCC3)cc2c1` (stereo not given) was tested, and the survival was inactive: 93%. With `COc1ccc(C(=O)N2CCN(CCc3ccccn3)CC2)cc1` the survival was inactive: 113%. With `Cc1cccc(C)c1NC(=O)Cn1c(=O)n(CCC(=O)NCc2ccc3c(c2)OCO3)c(=O)c2sccc21` the survival was inactive: 89%. `COc1ccc(-c2cc(C(F)(F)F)n3nc(C(=O)Nc4ccc(Cl)cc4C(F)(F)F)cc3n2)cc1OC` was tested, and the survival was inactive: 68%. With `COc1ccccc1N1CCN(C(=O)c2ccco2)CC1` the survival was inactive: 108%. In the case of `O=C(Nc1c[nH]c(=O)[nH]c1=O)c1ccco1`, the survival is reported as inactive: 106%. `Nc1ccc(-c2nc3c(Cl)cccc3[nH]2)cc1` was tested, and the survival was inactive: 125%. In the case of `Cc1oc(-c2ccccc2)nc1Cn1c(=O)cc(-c2ccccc2)c2c(C)nn(C)c21`, the survival is reported as inactive: 76%. With `CCN(C(=O)Cn1cnc2c1c(=O)n(C)c(=O)n2C)c1ccccc1C` the survival was inactive: 73%. In the case of `Cc1ccc(NC(=O)c2cnc(SCC(=O)N3CCCc4ccccc43)n(C)c2=O)cc1C`, the survival is reported as inactive: 77%. `CC(C)CN(CC(C)C)c1nnc(NC(=O)Nc2cccc(C(F)(F)F)c2)s1` was tested, and the survival was inactive: 97%. In the case of `CCOc1ccc(CNC(=O)c2ccc(Sc3ccc(C)cc3)c(N)c2)cc1OC`, the survival is reported as inactive: 119%. `COc1ccc(-c2cc(C(=O)Nc3c(C(=O)c4ccc(C)c(F)c4)oc4ccccc34)no2)cc1` was tested, and the survival was inactive: 86%. For `Cc1ccc2nc(Cl)c3cc(C(=O)N4CCCC(C)C4)sc3c2c1` (stereo not given), the survival was active: -2%. With `CCn1c(=O)c2cc(C(=O)NCCc3ccc(OC)c(OC)c3)sc2c2ccccc21` the survival was inactive: 82%. For `COc1ccc(OCC(=O)Nc2ccc3c(c2)N(C)C(=O)c2ccccc2S3)cc1`, the survival was inactive: 75%. `CN(C)c1ccc(/C=N/NC(=O)c2ccccc2)cc1` was tested, and the survival was inactive: 99%. With `O=C(O)CN1C(=O)/C(=c2\sc3nc4ccccc4n3c2=O)c2ccccc21` the survival was inactive: 104%. `COc1ccc(C(C)=O)cc1CSc1nc(NCc2ccc(Cl)cc2)c2ccccc2n1` was tested, and the survival was active: 0%. With `COC(=O)Cn1c(SCCOc2ccccc2Cl)nc2ccccc21` the survival was inactive: 81%. `COC(=O)CSc1nnc(-c2cccc(O)c2)o1` was tested, and the survival was inactive: 105%. In the case of `O=C(CCS(=O)(=O)c1nc(-c2ccc3c(c2)OCO3)cc(C(F)(F)F)n1)Nc1ccccc1C(F)(F)F`, the survival is reported as inactive: 96%. With `CCc1ccccc1NC(=O)c1cc(S(=O)(=O)N2CCC(C)CC2)cn1C` the survival was inactive: 22%. In the case of `CN(C)S(=O)(=O)c1ccc2c(c1)oc(=O)n2C`, the survival is reported as inactive: 121%. In the case of `CC(C)OC(=O)c1ccc(N)cc1`, the survival is reported as inactive: 98%. `CCOC(=O)c1cc(-c2ccc(C)cc2)n(CC(=O)Nc2cc(C)ccc2C)c1C` was tested, and the survival was inactive: 99%. With `COc1ccc(-c2cc(C(F)(F)F)n3nc(C(=O)Nc4cccc(Cl)c4Cl)cc3n2)cc1OC` the survival was inactive: 128%. With `CC1=C(C(=O)Nc2ccc(C)cc2C)C(c2cc(Br)ccc2F)n2ncc(C(=O)Nc3ccc(C)cc3)c2N1` (stereo not given) the survival was inactive: 72%. For `COc1ccc(OC)c(CNC(=O)c2cc3ccc4cccnc4c3[nH]2)c1`, the survival was inactive: 118%. In the case of `Cc1nn2c(=O)cc(COC(=O)c3ccc(NC(=O)COc4ccc(Cl)cc4)cc3)nc2s1`, the survival is reported as inactive: 153%. `Cc1ccccc1Nc1c(-c2c[nH]c3ccccc23)nc2ccccn12` was tested, and the survival was inactive: 83%. `CCn1nnc2cc(C(=O)Nc3ccc(C)cc3Br)ccc21` was tested, and the survival was inactive: 133%. For `O=c1c(Cl)c(N2CCCCC2)cnn1C12CC3CC(CC(C3)C1)C2`, the survival was inactive: 114%. In the case of `CC1CCN(S(=O)(=O)c2ccc3nc(NCc4ccc(F)cc4)ccc3c2)CC1`, the survival is reported as inactive: 71%. For `O=c1c2oc3ccccc3c2n(Cc2ccccc2)c(=O)n1Cc1ccco1`, the survival was inactive: 120%. For `COc1ccc(C)cc1NC(=O)C(=O)NCCc1csc2nc(-c3ccccc3F)nn12`, the survival was inactive: 71%. With `CCOc1ccc(CCNc2ncnc3onc(-c4ccc(Cl)cc4)c23)cc1` the survival was inactive: 88%. For `O=C(Cn1nnc2sc(-c3ccccc3)cc2c1=O)Nc1cccc(C(F)(F)F)c1`, the survival was inactive: 78%. In the case of `CC(C)(C)OC(=O)N1CCC(c2nnc(SCc3ccccc3F)o2)CC1`, the survival is reported as inactive: 73%. With `COc1ccc(-c2csc(N(CC(C)C)C(=O)c3cccs3)n2)cc1` the survival was inactive: 110%. `Cc1cccc(-c2nc3scc(CCNS(=O)(=O)c4ccc(F)cc4C)n3n2)c1` was tested, and the survival was inactive: 87%. In the case of `Cc1ccc(NC(=O)c2cc(S(=O)(=O)NCCC3=CCCCC3)ccc2F)cc1C`, the survival is reported as active: -3%. `CCc1nnc(NC(=O)c2ccc(S(=O)(=O)N3CCCCC3C)cc2)s1` (stereo not given) was tested, and the survival was inactive: 103%. For `CCc1ccccc1NC(=O)CN(c1ccc(OC)cc1)S(=O)(=O)c1c(C)n[nH]c1C`, the survival was inactive: 84%. For `Cc1c(NC(=O)c2cc(-c3ccc(Br)cc3)on2)c(=O)n(-c2ccccc2)n1C`, the survival was inactive: 79%. In the case of `COc1ccc(Nc2sc(C(=O)c3ccccc3)c(N)c2C(=O)Nc2cc(C)ccc2C)c(OC)c1`, the survival is reported as inactive: 69%. `Cc1ccn2c(c1)nc(=O)c1cc(S(=O)(=O)N3CCCCC3)c(Cl)cc12` was tested, and the survival was inactive: 75%. `CCc1ccc(NC(=O)c2sc3nc(C)c(C(=O)Nc4ccc(C)cc4C)c(-c4ccco4)c3c2N)cc1` was tested, and the survival was inactive: 88%. In the case of `Cc1oc(-c2ccccc2)nc1CNC(=O)NC1CCCCC1`, the survival is reported as inactive: 72%. For `CCOC(=O)c1c(NC(=O)/C=C/c2ccc(OCC)c(OC)c2)sc2c1CCC2`, the survival was inactive: 88%. With `COc1cccc(CNC(=O)CCCN2C(=O)CSc3c2c(C)nn3-c2ccccc2)c1OC` the survival was inactive: 124%. For `Cc1ccc(S(=O)(=O)c2nnn3c2nc(N2CCC(C)CC2)c2cc(Cl)ccc23)cc1C`, the survival was inactive: 83%. With `CCN1C(=O)c2ccccc2S(=O)c2ccc(C(=O)N3CCN(c4ccccc4)CC3)cc21` (stereo not given) the survival was inactive: 83%.
